Reference: PubChem BioAssay AID588689 (Southern Research Specialized Biocontainment Screening …, 2011)
The whole screen tested about 340,000 compounds, of which about 1,000 (0.29%) were called active. Inconclusive means that the source gave no clear call. Such entries were picked first, then a sample of the others. Rule as the data show it: inconclusive = inhibition above about 29% without an active follow-up result; inactive = below that.

What follows are molecules tested against Genome polyprotein (Dengue virus type 2 (strain 16681-PDK53)) (UniProt P29991) (assay: Dengue-2 NS5 methyltransferase inhibitors, primary screen, biochemical, confirmation dose response (AID 588689)). Settings: Dengue-2 NS5 methyltransferase capping enzyme assay, at 25 µM, active compounds read high.
UniProt P29991, sequence (P29991 whole entry, looked up): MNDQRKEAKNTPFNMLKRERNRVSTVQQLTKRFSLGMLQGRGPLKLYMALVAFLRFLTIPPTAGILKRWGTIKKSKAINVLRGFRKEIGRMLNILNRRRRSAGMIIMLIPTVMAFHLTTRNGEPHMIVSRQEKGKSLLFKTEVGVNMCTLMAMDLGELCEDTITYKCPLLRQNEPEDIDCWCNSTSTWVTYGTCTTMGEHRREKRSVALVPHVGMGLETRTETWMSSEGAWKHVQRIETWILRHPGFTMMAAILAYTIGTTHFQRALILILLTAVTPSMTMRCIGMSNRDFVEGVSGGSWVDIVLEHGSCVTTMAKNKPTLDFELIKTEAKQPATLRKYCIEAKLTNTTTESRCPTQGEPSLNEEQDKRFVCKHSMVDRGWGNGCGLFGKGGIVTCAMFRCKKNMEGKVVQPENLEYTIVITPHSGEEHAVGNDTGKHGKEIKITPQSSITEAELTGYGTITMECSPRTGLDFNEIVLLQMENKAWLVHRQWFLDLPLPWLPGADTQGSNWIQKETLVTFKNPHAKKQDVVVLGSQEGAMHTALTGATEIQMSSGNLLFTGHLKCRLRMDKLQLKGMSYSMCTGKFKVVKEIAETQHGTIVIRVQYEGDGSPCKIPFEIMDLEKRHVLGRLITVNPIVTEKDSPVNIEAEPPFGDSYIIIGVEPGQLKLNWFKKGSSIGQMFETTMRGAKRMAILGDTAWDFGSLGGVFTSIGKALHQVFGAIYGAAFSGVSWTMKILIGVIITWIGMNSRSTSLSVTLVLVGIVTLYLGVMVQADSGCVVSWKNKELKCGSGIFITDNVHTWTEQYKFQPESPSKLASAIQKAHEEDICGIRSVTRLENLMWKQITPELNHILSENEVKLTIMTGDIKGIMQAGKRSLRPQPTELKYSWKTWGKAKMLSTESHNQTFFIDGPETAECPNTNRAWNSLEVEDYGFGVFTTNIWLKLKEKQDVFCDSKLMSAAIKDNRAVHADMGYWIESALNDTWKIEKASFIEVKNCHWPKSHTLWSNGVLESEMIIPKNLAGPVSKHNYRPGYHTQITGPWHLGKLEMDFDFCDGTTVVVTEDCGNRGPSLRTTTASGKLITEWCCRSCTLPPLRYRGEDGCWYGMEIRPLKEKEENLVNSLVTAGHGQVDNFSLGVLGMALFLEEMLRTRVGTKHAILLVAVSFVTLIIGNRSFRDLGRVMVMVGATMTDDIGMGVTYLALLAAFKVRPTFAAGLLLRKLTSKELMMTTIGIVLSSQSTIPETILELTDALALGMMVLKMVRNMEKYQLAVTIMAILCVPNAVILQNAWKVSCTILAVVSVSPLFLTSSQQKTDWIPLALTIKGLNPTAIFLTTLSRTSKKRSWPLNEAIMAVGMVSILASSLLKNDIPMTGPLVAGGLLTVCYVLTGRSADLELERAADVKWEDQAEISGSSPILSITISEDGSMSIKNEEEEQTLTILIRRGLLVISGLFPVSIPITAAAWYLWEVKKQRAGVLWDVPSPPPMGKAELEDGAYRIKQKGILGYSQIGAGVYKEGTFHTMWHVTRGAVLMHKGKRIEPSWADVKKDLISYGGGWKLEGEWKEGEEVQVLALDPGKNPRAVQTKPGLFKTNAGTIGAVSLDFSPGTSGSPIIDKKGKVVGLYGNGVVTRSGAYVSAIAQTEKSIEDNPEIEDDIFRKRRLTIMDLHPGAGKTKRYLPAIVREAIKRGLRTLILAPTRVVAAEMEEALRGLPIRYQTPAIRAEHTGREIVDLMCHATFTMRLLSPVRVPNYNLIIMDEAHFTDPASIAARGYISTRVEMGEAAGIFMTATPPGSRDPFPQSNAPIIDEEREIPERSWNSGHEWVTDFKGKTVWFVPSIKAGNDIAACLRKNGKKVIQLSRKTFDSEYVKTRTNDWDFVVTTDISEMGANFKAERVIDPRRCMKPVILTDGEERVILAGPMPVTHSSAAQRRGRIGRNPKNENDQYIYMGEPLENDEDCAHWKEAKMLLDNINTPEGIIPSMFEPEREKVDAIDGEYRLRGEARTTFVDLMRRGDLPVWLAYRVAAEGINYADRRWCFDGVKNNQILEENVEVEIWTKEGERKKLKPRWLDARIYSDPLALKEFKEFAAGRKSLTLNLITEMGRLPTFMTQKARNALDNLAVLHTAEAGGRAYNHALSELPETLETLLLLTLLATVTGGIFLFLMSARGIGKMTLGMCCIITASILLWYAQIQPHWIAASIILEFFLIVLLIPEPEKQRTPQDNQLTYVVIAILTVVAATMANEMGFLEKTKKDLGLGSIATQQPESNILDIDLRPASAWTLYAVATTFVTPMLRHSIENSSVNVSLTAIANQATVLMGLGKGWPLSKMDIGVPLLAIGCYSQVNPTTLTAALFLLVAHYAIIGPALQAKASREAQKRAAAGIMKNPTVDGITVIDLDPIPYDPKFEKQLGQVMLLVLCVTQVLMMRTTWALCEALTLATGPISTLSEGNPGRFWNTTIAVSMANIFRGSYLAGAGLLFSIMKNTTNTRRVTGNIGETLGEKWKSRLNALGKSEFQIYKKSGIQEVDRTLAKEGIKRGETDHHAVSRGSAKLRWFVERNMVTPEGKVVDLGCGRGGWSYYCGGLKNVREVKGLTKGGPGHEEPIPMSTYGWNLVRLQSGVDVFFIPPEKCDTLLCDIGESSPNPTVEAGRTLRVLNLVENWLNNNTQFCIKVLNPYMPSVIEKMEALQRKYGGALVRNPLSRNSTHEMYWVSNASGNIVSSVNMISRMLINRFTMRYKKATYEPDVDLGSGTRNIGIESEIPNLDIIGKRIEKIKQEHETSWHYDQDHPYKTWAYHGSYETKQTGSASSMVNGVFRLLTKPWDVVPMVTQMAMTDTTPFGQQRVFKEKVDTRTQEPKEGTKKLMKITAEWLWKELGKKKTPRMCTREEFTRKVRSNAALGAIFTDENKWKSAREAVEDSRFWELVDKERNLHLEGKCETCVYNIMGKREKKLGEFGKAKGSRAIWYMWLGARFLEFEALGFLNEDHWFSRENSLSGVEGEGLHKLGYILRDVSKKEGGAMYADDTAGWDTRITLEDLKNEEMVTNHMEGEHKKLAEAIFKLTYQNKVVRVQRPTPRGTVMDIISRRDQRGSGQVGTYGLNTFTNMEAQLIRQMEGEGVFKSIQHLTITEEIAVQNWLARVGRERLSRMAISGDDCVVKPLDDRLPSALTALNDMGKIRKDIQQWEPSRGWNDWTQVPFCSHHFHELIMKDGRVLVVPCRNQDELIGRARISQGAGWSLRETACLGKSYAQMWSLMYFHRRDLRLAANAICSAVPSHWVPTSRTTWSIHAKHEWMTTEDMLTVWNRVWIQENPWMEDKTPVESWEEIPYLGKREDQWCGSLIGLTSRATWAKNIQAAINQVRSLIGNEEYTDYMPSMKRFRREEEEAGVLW

Compound	inhibition
CCN(CC)S(=O)(=O)c1ccc(N2CCOCC2)c(NC(=O)c2cc3ccccc3oc2=O)c1	inactive: -2.2%
CCOC(=O)C1CCN(c2nc3ccccc3nc2C(C#N)C(=O)OC(C)C)CC1 (stereo not given)	inconclusive: 152%
CCCN1CCc2c(sc(NC(=S)NC(=O)c3ccccc3)c2C#N)C1	inconclusive: 194%
NS(=O)(=O)c1ccc(NS(=O)(=O)c2ccc(NC(=O)C3CC3)cc2)cc1	inactive: 15.1%
Cc1ccc(Sc2cc(NCCCO)c([N+](=O)[O-])c3nonc23)cc1	inactive: 16.2%
S=C(Nc1ccc2nc(-c3ccccn3)c(-c3ccccn3)nc2c1)N1CCCCCC1	inconclusive: 43.3%
O=C(O)CCC(=O)N1CCc2cc(S(=O)(=O)Nc3ccc4c(c3)OCCO4)ccc21	inconclusive: 90.6%
O=c1cc(O)c2sc3nc4c(c(C(F)(F)F)c3c2[nH]1)CCCCC4	inactive: 0.88%
COc1cccc(/C(O)=C/c2nc3ccc(C(=O)NCCc4cccc(C)c4)cc3[nH]c2=O)c1	inconclusive: 49.2%
Cc1cccn2c(=O)c3cc(C#N)c(=NC(=O)c4cccs4)n(CCCOC(C)C)c3nc12	inconclusive: 59%
COc1ccc(NC(=O)c2cccc(-c3ccc(O)cc3)c2)cn1	inconclusive: 63.4%
O=[N+]([O-])c1ccc(/C=C/C2=NN(c3ccccc3)C(c3ccco3)C2)o1 (stereo not given)	inconclusive: 52.4%
Cc1cc[n+](-c2[nH]c(=O)sc2/C=N/N=C(\[O-])c2ccccc2)cc1C	inconclusive: 124%
O=C1CCC[C@@H]2C[C@@]3(C[C@@H]4CCN1[C@H]24)Nc1cc(Cl)ccc1NC3=NCc1ccccc1	inactive: -11.9%
Cc1c(-c2ccccc2)nc(N)c(C#N)c1-c1ccco1	inconclusive: 152%
CCCCCCCCOc1ccc(C2OC34CCCCC3C(C#N)(C#N)C2(C#N)C(=N)O4)cc1 (stereo not given)	inconclusive: 80.3%
COc1cc(OC)cc(C(=O)NC2CCSC2=O)c1 (stereo not given)	inactive: 2.06%
CC(C)(C)c1ccc(OCC(=O)Nc2ccc3c4c(cccc24)C(=O)NC3=O)cc1	inconclusive: 28.6%
c1coc(CSSCc2ccco2)c1	inconclusive: 54.9%
N#CC1(c2ccccc2)CCC(=NNS(=O)(=O)c2ccccc2)CC1 (stereo not given)	inactive: -6.67%
COC(=O)CCC(=O)OC1(C)C(=O)C2=CN(c3ccc(OC)cc3)C(c3ccc(OC)cc3)=CC2=C(Br)C1=O (stereo not given)	inconclusive: 43.1%
COc1cccc(-c2nc3ccc(C(=O)N4CCCC(O)C4)cc3o2)c1 (stereo not given)	inactive: -1.93%

Compound	inhibition
c1ccc(-c2cnn3c(-c4ccccc4)c(-c4ccccc4)nc3n2)cc1	inconclusive: 152%
CC(=NC1CC1)C1=C(O)c2ccccc2C1=O	inconclusive: 152%
COC(=O)c1ccc(=O)c2nc3/c(=C/O)c(O)cc(=O)c3[nH]c12	inconclusive: 28.6%
N#CC(CCc1ccc([N+](=O)[O-])cc1)(CCc1ccc([N+](=O)[O-])cc1)C(N)=O	inconclusive: 34.1%
O=C(O)CCn1cc(/C=C\C(=O)c2ccc(Cl)cc2)c(-c2cccc(Br)c2)n1	inactive: 26%
Oc1c(CN2CCOCC2)ccc(CN2CCOCC2)c1O	inactive: 25.3%
Cc1cccc(N/N=C/c2ccccc2O)c1	inactive: -8.43%
Cc1ccc(OCC(=O)Sc2ccc(C)cc2)cc1	inactive: -33.2%
CCOc1cc(C=C2C(=O)c3ccccc3C2=O)ccc1OCC(=O)Nc1ccc(C)cc1	inconclusive: 51.1%
O=C(OCCN1C(=O)c2cccc3c(N4CCOCC4)ccc(c23)C1=O)c1ccccc1Cl	inconclusive: 152%
CC1CCN(c2ccc3c(c2)S(=O)(=O)c2cccc(C(=O)NCc4cccc(F)c4)c2C3=O)CC1	inconclusive: 42.3%
Nc1c(C(=O)C2CC2)sc2nc(-c3cccs3)cc(C(F)(F)F)c12	inconclusive: 149%
O=C1c2cccc3c(O)ccc(c23)C(=O)N1c1ccc(Cl)cc1	inconclusive: 172%
N#CC1=C(N)C(C#N)(C#N)[C@H](c2c(F)cccc2F)[C@H]2CC3(CC=C12)OCCO3	inconclusive: 70.3%
C=CCn1c(=N)n(CC(O)c2ccco2)c2ccccc21 (stereo not given)	inconclusive: 34.6%
Cc1c2cc(O)c(=O)cc-2oc2cc(O)c(O)cc12	inconclusive: 170%
Cc1ccccc1C(=O)Nc1ccc(S(=O)(=O)Nc2onc(C)c2C)cc1	inactive: -6.85%
CCN(CC)c1ccc(/C=C(\C#N)C(=O)c2ccc(Br)cc2)cc1	inconclusive: 152%
Cc1cc(Br)ccc1NC(=O)CN(C)C(=O)C1CCN(C(=O)c2ccc(Cl)cc2)CC1	inactive: -3.75%
Cc1ccc2[nH]cc(/C=C/c3cc[n+](C)cc3)c2c1	inconclusive: 171%
O=C(Nc1ncccc1Cl)C(Sc1ccccc1)c1ccccc1 (stereo not given)	inactive: -1.88%
CCN(CC)c1nc(C=Cc2ccc(N(C)C)cc2)c2nccnc2n1	inconclusive: 72%

Compound	inhibition
O=C(Nc1scc(-c2cccs2)c1C(=O)O)c1cccs1	inactive: 22.9%
O=C(O)CCn1c2c(c3ccccc31)CCCC2	inconclusive: 57.8%
COc1ccc(C2C(C(=O)c3cccs3)=C(O)C(=O)N2c2nnc(C)s2)cc1OC (stereo not given)	inconclusive: 137%
O=C(CCN1CCN(CCO)CC1)Nc1cccc(Br)c1	inactive: 0%
O=C1CC(c2ccccc2)CC(O)=C1C=NCc1ccc(Cl)c(Cl)c1 (stereo not given)	inactive: 3.34%
COc1ccc(NC(=O)NS(=O)(=O)c2ccc(C)cc2)cn1	inconclusive: 170%
O=C1NC(=S)/C(=C\c2ccc(-c3ccccc3Cl)o2)S1	inconclusive: 80.1%
COc1cc(N2CCCC2)c(OC)cc1/C=C(/C#N)c1ccc(F)cc1	inconclusive: 47.3%
O=C(CCN1C(=O)/C(=C/c2ccc3c(c2)OCO3)SC1=S)NNC(=O)c1cccnc1	inconclusive: 31%
CCOC(=O)COn1c(=O)c(-c2cc3ccccc3o2)[n+]([O-])c2ccccc21	inconclusive: 56.4%
CNc1ccccc1C(=O)OC	inactive: 2.17%
CCn1c(SCC(=O)Nc2ccc3c(c2)c2ccccc2n3CC)nnc1-c1ccco1	inconclusive: 60.3%
COc1cccc(C(c2c(O)nc(SC)n(C)c2=O)c2c(O)nc(SC)n(C)c2=O)c1	inactive: 16.2%
COc1ccc(OC)c(/C=c2\sc3nc(-c4cccs4)nn3c2=O)c1	inconclusive: 137%
N=c1c(S(=O)(=O)c2ccc(Br)cc2)cc2c(=O)n3ccccc3nc2n1C1CCCCC1	inconclusive: 68.2%
COc1cc(CN=Cc2c(O)n(Cc3ccccc3)c(=S)[nH]c2=O)cc(OC)c1	inactive: 10.8%
CCC1(c2ccccc2)NC(=O)N(CC(=O)Nc2ccc(OC)nc2)C1=O (stereo not given)	inconclusive: 114%
COc1ccc(OC)c(N=Cc2c(O)c3ccccc3oc2=O)c1	inconclusive: 63.9%
CCN(CC)c1ccc2cc(C(C)=O)c(=O)oc2c1	inconclusive: 57.2%
CCn1c(O)c(/C=N/N=C/c2ccccc2)c2ccc(C3=NNC(=O)CC3)cc21	inconclusive: 56%
COc1cc(CNc2ccc(N3CCCC3)cc2)cc(Cl)c1OC	inactive: 13.9%
CCCCCCc1cc2cc(-c3nnc(-c4ccccc4O)o3)c(=O)oc2cc1O	inconclusive: 167%

Compound	inhibition
O=C(O)c1cc(N=Nc2c(O)ccc3ccccc23)cc(C(=O)O)c1	inactive: 20.4%
Cc1ccc(S(=O)(=O)N[C@H](C(=O)Oc2ccc3c(C(F)(F)F)cc(=O)oc3c2)c2ccccc2)cc1	inconclusive: 54.3%
CCOC(=O)/C(=C\c1ccc(N2CCC(c3ccccc3)=N2)cc1)C(C)=O	inconclusive: 41.2%
COc1ccc(C2C=C(c3ccccc3)Nc3nnnn32)cc1 (stereo not given)	inconclusive: 30.3%
COc1ccc(NS(=O)(=O)c2cc(NC(=O)[C@@H](NC(=O)c3ccccc3)C(C)C)ccc2C)cc1	inactive: -3.89%
CC1OC2(C)OC(=N)C1(C#N)C(C#N)(C#N)C2c1ccccc1 (stereo not given)	inconclusive: 52.4%
Cc1cccc(OCCn2nc(C(=O)O)c3ccccc3c2=O)c1	inactive: 2.68%
O=C(COC(=O)c1cc(=O)c2ccccc2o1)Nc1ccccc1F	inconclusive: 32.6%
CC/C=C\C/C=C\C/C=C\CCCCCCCC(=O)O	inactive: 2.2%
N#CC1=C2N=C(N)c3ccccc3N2C2=C(C(=O)CCC2)C1c1ccccc1F (stereo not given)	inconclusive: 35.3%
N#C/C(=C\c1ccc(OC(=O)c2ccc(Cl)s2)cc1)c1nc2ccccc2[nH]1	inconclusive: 38.2%
COc1ccc(S(=O)(=O)N2CCN(C(=O)CCOc3ccccc3)CC2)cc1OC	inactive: 4.1%
CCN1C(=O)/C(=C2/Sc3ccccc3N2CC)SC1=S	inconclusive: 31.2%
COc1cc(/C=C2\SC(=S)N(CC(=O)NC3=NCCS3)C2=O)cc(OC)c1OC	inconclusive: 40%
CC1CCN(c2ccc3c(c2)S(=O)(=O)c2cccc(C(=O)NCc4ccc(F)cc4)c2C3=O)CC1	inconclusive: 156%
CCCCC1=CC2=CC(=O)C(C)(OC(=O)CC)C(=O)C2=CN1Cc1ccc2c(c1)OCO2 (stereo not given)	inconclusive: 28.7%
O=[N+]([O-])c1cccc(-c2cn3nc(-c4ccccc4)c(-c4ccccc4)nc3n2)c1	inconclusive: 29.5%
CC(C)N1CCc2c(sc(NC(=O)c3ccco3)c2C(N)=O)C1	inactive: -17.8%
COc1cc(/C=C2/NC(=O)N(Cc3ccccc3F)C2=O)ccc1Oc1ccc([N+](=O)[O-])cn1	inactive: -0.72%
